Laboratory results: PMC12136788
The other results are listed elsewhere or left out.

B1: chr12:100625254:100625355:+|3pUTR|ENSG00000139354|unk|FALSE|unique (ssRNA)
RNA: GGGAGUUCUACAGUCCGACGAUCAUAUGUAUUAAAUAUGGAGUUCAUAUACCUGCUAAUAUCAACGGUGGUGCUCUUACUAUUAGUUAAUUGCAUUUUGGUUAAAAAAAAAAAAGCAACAGUUUGGCACUUGUCCUACAAAAGCAACAGAGGAUUGAGCAUCA
B2: chr11:134247321:134247422:+|3pUTR|ENSG00000151502|unk|total|mutant (ssRNA)
RNA: GGGAGUUCUACAGUCCGACGAUCCCUUUUCAGAGCAUGAGGUCAGGCUCUGUAUCCCUCCUUUUCCCCGCUGAUAUUCUAACCCGAAGCAUUUGUCAAUUCCUUUGCCUCCCAACUGACAACACACGUUCAUUUUCCAACCUUCAACAGAGGAUUGAGCAUCA
B3: chr21:43695798:43695899:+|3pUTR|ENSG00000160208|msi1|FALSE|unique (ssRNA)
RNA: GGGAGUUCUACAGUCCGACGAUCACAAUAUUUUGUAAAAUGAUGCUUCCCCCUUCUCCAUGGUCUAGUCAAUUUUGUACAAUUAGGUAUCUGACUUUACAAGUUUGUUAUCCUUUCUAAUUUUUACUGAACUGAAAGCACAAACAACAGAGGAUUGAGCAUCA
B4: chr10:110887682:110887783:+|CDS|ENSG00000150593|msi1|total|mutant (ssRNA)
RNA: GGGAGUUCUACAGUCCGACGAUCGUUAAGAGAUUUAAAUCUUGGUGAAAUGAAAAGUGGAGUACCAGUGUUGGCAGUAUCCUCCGCAUUGGAGGGGAAGGCCCGUCACCGAGAGAUGACAUCUAAGCUUCUUUCUGACCUUUGCAACAGAGGAUUGAGCAUCA
B5: chr5:95604386:95604487:+|3pUTR|ENSG00000164291|msi1|FALSE|unique (ssRNA)
RNA: GGGAGUUCUACAGUCCGACGAUCCCUGCCAUCCAGUUCCCCCUCCAAGAAGCAAGUACCGAAACCACCUGCUUACGCAUUUUUAGAGAUUGGCCACAAAUUUAUAAACAAAUGUAUAUAUUCCUUUCCCCCUACACAAACGGUCAACAGAGGAUUGAGCAUCA
B6: chr6:21593967:21594078:+|5pUTR|ENSG00000124766|unk|total|mutant (ssRNA)
RNA: GGGAGUUCUACAGUCCGACGAUCUCCGUGCCGAUUCCGCCCACAGAGAGUCCUGGAGCCACAGUCUUUUUUGCUUUGCAUUGCCGGAGAGGGACUAAGUGCCCGAGACUAUGUCGCUUUCCUGAGCUACCGAGAGCGCUCGUGCAACAGAGGAUUGAGCAUCA
B7: chr13:110149936:110150037:-|3pUTR|ENSG00000187498|msi1|FALSE|unique (ssRNA)
RNA: GGGAGUUCUACAGUCCGACGAUCUUCUUGUAUUAUAAUUAAUUUUCUACCCCCAGAGAUAAAUGUUUGUUUAUAUCACUGUCUAGCUGUUUCAAAAUUUAGGUCCCUUGGUCUGUACAAAUAAUAGCAAUGUAAAAAUGGUUUCAACAGAGGAUUGAGCAUCA
B8: chr15:73714018:73714119:+|3pUTR|ENSG00000103855|msi1|FALSE|unique (ssRNA)
RNA: GGGAGUUCUACAGUCCGACGAUCCCCACCCAUAAUUCUUACCCAGAGCAUGGGGUUGGGGCGGAAACCUGGAGAGAGGGACAUAGCCCCUCGCCACGGCUAGAGAAUCUGGUGGUGUCCAAAAUGUCUGUCCAGGUGUGGGCACAACAGAGGAUUGAGCAUCA
B9: chr1:208022241:208027242:-|three_prime_utr|ENSG00000076356|control|control|control (ssRNA)
RNA: GGGAGUUCUACAGUCCGACGAUCGAGACCCCAUCCUGGGGAGAGGGGAGGACUCCUCUCCCUACGCCAGCCAAGUUUCGUCAUAGCCAGUUCCAGCUGGGAGAGACAGUGGGCGUCGUCCAUCCUCAGUGAGAACACCAGAGACAACAGAGGAUUGAGCAUCA
B10: ENSG00000198589:be:win_7701|CDS|ENSG00000198589|bound_else_gene|NA|bound_elsewhere_windowed (ssRNA)
RNA: GGGAGUUCUACAGUCCGACGAUCUACAGGAAUGCACAGGAGGCAAAUCACUGACCUUUUAGACCAAAGUAUUCAAGUGCAUUCCCAGUGCUUUGUCAUCACUUCAGACAACCGCUAUAUUCUCGUCUGUGGCUUCUGGGAUAACAACAGAGGAUUGAGCAUCA
B11: chr12:12643182:12643283:+|3pUTR|ENSG00000111269|unk|FALSE|unique (ssRNA)
RNA: GGGAGUUCUACAGUCCGACGAUCCUGGAGUUGUGCACAGCACCGCAGCUAGUGGGCCUGGCUGGGGGUGCAGAAGGGCAGGGUAGUUCUUUCCAUUUCCCCUUGCAGCUACACUUACUUUCUCCCUGACUACCAAAUGGAGUGCAACAGAGGAUUGAGCAUCA
B12: chr19:43785873:43786072:-|three_prime_utr|ENSG00000159871|control|control|control (ssRNA)
RNA: GGGAGUUCUACAGUCCGACGAUCGAAAUGAAGAAAAAAGGAGAAAGGAGAAAAGCAUGCACUUGGAGACUAAGACCAGGAGAUAGAAACAGAGAAGCAAGACAAGGCGCAGUGGCUCACACUUGUAAUUCCAGCACCUUAGGACAACAGAGGAUUGAGCAUCA
B13: chr1:203167810:203168091:-|three_prime_utr|ENSG00000133055|control|control|control (ssRNA)
RNA: GGGAGUUCUACAGUCCGACGAUCGGGCCAGGUCCACCAGGCCUACAGUCAAACUCCAGAGAUGCCCAAGACCCCCGCUUCCAUAGCGACGGCUGAUGGAACCGCCCCUGGUACCUGCUGGCCUCCCUUCCCCAGAGGCUGGUGCAACAGAGGAUUGAGCAUCA
B14: ENSG00000170743:stop:overlap|stop_codon|ENSG00000170743|stop_codon|NA|stop_codon (ssRNA)
RNA: GGGAGUUCUACAGUCCGACGAUCAUUUCCCCAGGGAGUGCAUCCUUUGGAAGGAUAUCGAAUAUGUCACCAAUAUUCUUAGCUAGCCCCUAAGAGACAGCAGGUGUUAUCUGUCCUCCGUACCACAUUUUCUUUAGAGCUUUUCAACAGAGGAUUGAGCAUCA
B15: chr7:107202531:107202632:-|3pUTR|ENSG00000164597|msi1|total|mutant (ssRNA)
RNA: GGGAGUUCUACAGUCCGACGAUCUAUUCUGAGAACUCAUAAAUAAAAUUCAGCCAAGAUUAAUCAAUCAAUCAAUCAAUCAGCCGACGUCAGAGAUAAGCAACUUUUUUUUCCAUUUAUUUGAAAUAAUAUACAAGAAUACCGCAACAGAGGAUUGAGCAUCA
B16: chr22:41117408:41117517:+|CDS|ENSG00000100393|unk|total|mutant (ssRNA)
RNA: GGGAGUUCUACAGUCCGACGAUCCCAGGUCAAGUCAUGGCCAGCCAGGCCCAACAGAGCAGUCCUGGAUCCGGUUUGAUAAACCGCAUGGUCAAAAGCCCAAUGACACAGGCAGGCUUGACUUCUCCCAACAUGGGGAUGGGCCAACAGAGGAUUGAGCAUCA
B17: chr1:108699644:108699745:+|CDS|ENSG00000134186|unk|total|mutant (ssRNA)
RNA: GGGAGUUCUACAGUCCGACGAUCGAUUCCAAGAAAGAGAAAAAACACAGCCGAAGCAGAAGCAGAGAAAGGAAACACAGAAGCCGGAGUCGAAGCCGAAAUGCAGGGAAACGAAGCCGAAGCCGAAGCAAAGAGAAAUCAAGUCAACAGAGGAUUGAGCAUCA
B18: chr2:150470103:150470218:-|CDS|ENSG00000115963|unk|total|mutant (ssRNA)
RNA: GGGAGUUCUACAGUCCGACGAUCAUGGCCAAACAGAUUGGAGCAGCUACUUAUAUCGAAUGCUCAGCUUUACAGUCGGAAAACCGCGUCAGAGACAUUUUUCACGUUGCCACCUUGGCAUGUGUAAAUAAGACAAAUAAAAACCAACAGAGGAUUGAGCAUCA
B19: chr6:83525322:83525423:+|3pUTR|ENSG00000146250|msi1|FALSE|unique (ssRNA)
RNA: GGGAGUUCUACAGUCCGACGAUCACAAUUACAAUGUGUAUUAUUUAAAAAUGGGAGAAAUAGUUUGUUCUAUGAAAUAAACCUAGUUUAGAAAUAGGGAAGCUGAGACAUUUUAAGAUCUCAAGUUUUUAUUUAACUAAUACUCAACAGAGGAUUGAGCAUCA
B20: chr19:10690846:10690947:+|3pUTR|ENSG00000129351|msi1|total|mutant (ssRNA)
RNA: GGGAGUUCUACAGUCCGACGAUCGAAAGAGGUGAAAGAACAAGUUGUGUGCCCGAAAACUUUUGAGGAAUUCUUAUUUGUGUCCGAGCAGAGGAGGUCCCAGAUACCAAGUGGCGCCUCCCAGGAAAGGCUGGGAGAAGAGGUCAACAGAGGAUUGAGCAUCA
B21: chr5:52955293:52955406:+|3pUTR|ENSG00000213949|unk|FALSE|unique (ssRNA)
RNA: GGGAGUUCUACAGUCCGACGAUCUACCAACCAGUGUGAGCUGACUUCAGCACACCACUGAGACAGAUUACACGAUAGACAGAUAGAUAGAUAGAUAGAUAGAUAGAUAGAUAGAUAGAUAGAUAGAUAUUGAUAGAGAACAUGCAACAGAGGAUUGAGCAUCA
B22: chr4:1716041:1716142:-|3pUTR|ENSG00000168936|msi1|total|mutant (ssRNA)
RNA: GGGAGUUCUACAGUCCGACGAUCAGGCUUCCCCGAGCGCUCAGCAGGUGAAGGCAGCAGGGGCCAUGGCCGGGAGCCAGGCCCCGCUUUGAACUGAGUUUCAAGGGCUGCCAAAGAGGGGCAGUGGGUUGGGGUUGUUUUUACCAACAGAGGAUUGAGCAUCA

Each binder was assayed against MSI1 full-length (mouse, UniProt Q61474 1-362) (assay: nsRBNS (natural sequence RNA bind-n-seq); RBNS binding buffer (assumed for nsRBNS): 25 mM Tris pH 7.5, 150 mM KCl, 3 mM MgCl2, 0.01% Triton X-100, 500 ug/ml BSA, 20 U/ml SUPERase-In, 4 C; UNK is unkempt and MSI1 is Musashi-1; names of the RNAs are library labels; protein concentration not given here; high values mean tight binding).
Chain of UniProt Q61474 (Q61474 whole entry): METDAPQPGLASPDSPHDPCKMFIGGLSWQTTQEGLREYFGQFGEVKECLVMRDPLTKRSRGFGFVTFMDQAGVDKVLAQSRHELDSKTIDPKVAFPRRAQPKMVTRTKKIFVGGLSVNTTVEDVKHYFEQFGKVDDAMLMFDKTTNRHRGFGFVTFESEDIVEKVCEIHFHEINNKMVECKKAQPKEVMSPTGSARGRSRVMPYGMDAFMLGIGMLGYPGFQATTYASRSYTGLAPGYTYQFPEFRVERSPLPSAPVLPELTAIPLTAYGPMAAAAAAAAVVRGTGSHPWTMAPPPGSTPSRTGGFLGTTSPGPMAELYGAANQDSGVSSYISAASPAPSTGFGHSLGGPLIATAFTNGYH

Binder | binding signal
B1 | 4.95 enrichment R
B2 | 0.592 enrichment R
B3 | 1.05 enrichment R
B4 | 0.349 enrichment R
B5 | 1.53 enrichment R
B6 | 0.447 enrichment R
B7 | 30.3 enrichment R
B8 | 0.347 enrichment R
B9 | 0.394 enrichment R
B10 | 0.497 enrichment R
B11 | 0.688 enrichment R
B12 | 1.22 enrichment R
B13 | 0.439 enrichment R
B14 | 0.336 enrichment R
B15 | 2.15 enrichment R
B16 | 0.388 enrichment R
B17 | 0.486 enrichment R
B18 | 0.309 enrichment R
B19 | 8.55 enrichment R
B20 | 0.428 enrichment R
B21 | 67 enrichment R
B22 | 0.406 enrichment R
